# Test results taken from paper PMC6212790.
# The list shows a part of the results. At the low end of the ranking the order means little.
# Target: T1, GST-Rok-C97-191 (UniProt O34857)
# T1 sequence: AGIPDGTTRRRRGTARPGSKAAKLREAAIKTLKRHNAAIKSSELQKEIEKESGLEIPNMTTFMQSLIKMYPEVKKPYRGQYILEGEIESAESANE
# Assay: protein binding microarray;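 also: rank score from −0.5 (least bound) to 0.5 (best bound)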
# Conditions: Rok is a gene silencer of Bacillus subtilis; high values mean tight binding; most listed sequences are background and not binding sites; double strand, one strand shown
row,Sequence,binding signal [E-score]
1,ATGAATCG,-0.0285
2,GAATATCC,0.0862
3,CTCCCGCC,-0.285
4,AAGTCATT,-0.0191
5,GAAGCTAC,0.309
6,TGTCAACA,-0.107
7,GTTGCCCA,-0.233
8,ACGGTCGG,-0.302
9,GCTGTACA,-0.0308
10,AGGGACGG,-0.263
11,CGAAGGGC,-0.3
12,AGAGCTCA,-0.095
13,CGACTACG,-0.0719
14,CCTGGATC,-0.148
15,CCGTTTCG,-0.0271
16,CTTCAGTA,0.123
17,CCGATCAC,-0.173
18,GGGTTAGA,-0.176
19,CCAAGCCG,-0.103
20,GGCGCCTA,-0.153
21,ATACGCTC,-0.188
22,AGGCGTAG,-0.0211
23,GCCCGGGA,-0.113
24,CTCAGAAA,-0.114
25,GACAAAAC,-0.106

row,Sequence,binding signal [E-score]
1,AGTTAAAC,0.0755
2,CACGCCTA,-0.037
3,ACGTGCCC,-0.364
4,CACTTAGG,0.00488
5,AGACGGGC,-0.151
6,AGCGCAGC,-0.249
7,AGAATAGC,0.0274
8,GAAGACCC,-0.249
9,AGCACTAA,-0.0507
10,CCGTGTTC,-0.0105
11,AGCGTCTA,0.0643
12,CCCTAGGG,-0.231
13,ACGTACCC,-0.107
14,CAACTGAC,-0.115
15,GCCCCAGA,-0.161
16,CTCCTGCC,-0.211
17,AAAATGGA,-0.09
18,ACGCGCAC,-0.146
19,CCGAGAAC,-0.0632
20,AGATACCA,0.0917
21,ATTATAAC,0.174
22,GAAGGCGA,-0.237
23,CAACTTAC,0.202
24,AGTCTTTA,-0.0749
25,TCCACGCA,-0.0634

row,Sequence,binding signal [E-score]
1,AAACTATC,0.36
2,GTGAAATA,0.156
3,GAATATGC,0.007
4,CCCAGTCC,-0.24
5,ATCAAGCC,-0.14
6,CTTGTTAA,0.127
7,GTGCAATA,-0.0946
8,ACGGATTG,-0.036
9,CCCTGATA,0.0527
10,ATAAAGTA,0.29
11,CGCCGCCG,-0.221
12,CCGCTCCA,-0.0974
13,AGTCCCCA,-0.122
14,AGGGAAAG,-0.172
15,CTTGATAA,0.158
16,CCAACAAG,-0.0674
17,GTGAGCTA,0.0327
18,GCCACGGA,-0.258
19,AAGCGGAT,0.0367
20,CAAGTGAA,-0.0164
21,AGGGCTAA,-0.0356
22,AACGCATC,-0.185
23,TATTCGAA,0.194
24,AACAATAA,0.194
25,CGGTTATA,0.128

row,Sequence,binding signal [E-score]
1,AGCGGTGA,0.0385
2,GGCGGGAC,-0.265
3,ACCGAAAT,0.208
4,CACTAACC,0.0226
5,AAAGCGGG,-0.0411
6,GTGTTAAA,-0.0569
7,CTGCGCAA,-0.111
8,AACCTAAG,0.0134
9,TGTGCTAA,0.118
10,CACTCTCC,-0.104
11,GACCTGGA,-0.0196
12,CGCGAAGA,0.102
13,CGGCGGGC,-0.277
14,ACTTGATA,0.212
15,CCAGTTTA,-0.0153
16,AATTAGGC,0.193
17,ACCGGGCT,-0.308
18,CGTTTGGA,0.0119
19,AGATGTAT,0.264
20,ACTCGTGC,-0.123
21,ATTGATGG,-0.162
22,GGGCCGTA,-0.267
23,CAGATCGG,-0.0569
24,AGAGTTGC,-0.071
25,CAGCTTGC,-0.162

row,Sequence,binding signal [E-score]
1,GCCACCAC,-0.0814
2,CAGTGACA,0.00145
3,CCGATCCC,-0.273
4,ATTCTCGA,0.21
5,ACTTGAAC,-0.123
6,CCGCGAGG,-0.261
7,AATATAGG,0.0639
8,GCGCGCAA,0.0711
9,ACTTCTTG,0.00785
10,ATGCGTAA,0.148
11,TAATAGCA,0.276
12,ACTTTGAA,-0.0356
13,CTCGTGCA,-0.165
14,TGTGCAAA,-0.144
15,GATATGAC,0.0403
16,CGTCTAGA,0.0312
17,CGTCATCC,-0.0679
18,AATTGTAG,0.285
19,CTCATCTC,-0.105
20,AAGACGTA,-0.14
21,GATAGATC,0.268
22,AGCTCCAG,-0.0943
23,CATGTTCG,-0.0041
24,TATGTGGA,0.282
25,ATTGAGCA,0.0709

row,Sequence,binding signal [E-score]
1,CACGGTTA,0.0638
2,GATCGCAC,-0.226
3,GGACTTAA,-0.17
4,CTATGGAC,-0.117
5,CCACACGA,0.0572
6,GGATACCC,-0.0581
7,CGGGATTA,-0.0376
8,CGGATAAC,0.0271
9,CTTCGCTC,-0.152
10,CGGTTTAC,0.109
11,AGGAGCAT,-0.132
12,GAGATCGC,-0.228
13,AATGTACG,0.155
14,CCAGTAAA,0.0523
15,TTAAATAA,0.179
16,GGGCAAAC,-0.0768
17,CCGTTCGA,-0.15
18,ACTGAGCC,-0.241
19,AGGATCGG,-0.2
20,ACAGTAAG,0.153
21,CGAGCACC,-0.162
22,CATATGGG,0.0424
23,CAGGTTCG,-0.31
24,CGTACTTC,0.0309
25,CATGCGGA,-0.0164

row,Sequence,binding signal [E-score]
1,ACTCCGTG,-0.145
2,CCCCTCGG,-0.417
3,CTTTAACC,-0.0453
4,ATGGTTAG,-0.0189
5,AATGTAAT,0.398
6,ACAGGAGC,-0.0925
7,CCATATTC,-0.00545
8,ACGAGTTA,0.224
9,CGCCTTAA,-0.108
10,TACTTCAA,0.231
11,CGGTTGGC,-0.223
12,CCATCAAG,-0.235
13,CCCCAACG,-0.281
14,AAGTGATG,0.0895
15,CTTCTCGA,-0.166
16,CAGACAAA,0.00308
17,AAGCAATC,0.0576
18,ATCTGACG,-0.131
19,AAAGTCTG,-0.0684
20,ACGAGAAT,0.05
21,ACGTGCCT,-0.189
22,CGATTCCC,-0.114
23,ATTATTTG,0.0555
24,CCCCTAGG,-0.277
25,TAGGGTGA,-0.319

row,Sequence,binding signal [E-score]
1,CTGTAGCA,0.243
2,GCCAAGAC,-0.183
3,CTGTGACA,-0.118
4,ATGTATGA,-0.0125
5,AATGTGGT,0.175
6,GAGTAACA,0.0147
7,GACAGACA,-0.102
8,AGGTATAA,0.251
9,GAATTGGC,0.0179
10,TCCAGAGA,-0.119
11,CGGAACCG,-0.064
12,ATAACCTA,0.18
13,CCATATAG,0.129
14,ATCTAAGG,0.0861
15,ATTAAAGC,0.244
16,TCGTCGCA,-0.0233
17,ACTGGTCT,-0.0161
18,AATCCTGG,-0.088
19,AACACTTG,0.11
20,CCATGGAC,-0.136
21,ACATGTAC,0.331
22,ACGGCAAT,0.0959
23,ATGTTCTG,-0.00292
24,CGTGGCTC,-0.0916
25,ATCTAAAT,0.0834

row,Sequence,binding signal [E-score]
1,GAAAGAAC,0.0785
2,CTACGACC,-0.01
3,GCCATTTA,-0.19
4,AAGTAAAG,0.104
5,ACACACCG,0.109
6,ACAACCCG,-0.0914
7,GTTAGCTA,0.292
8,ATGTTTCC,0.0484
9,AATTGAAA,0.0679
10,AGCAGCCG,-0.142
11,GACGCTAC,0.107
12,CATGTTCA,0.0541
13,AATTAGAC,0.0959
14,GAAACTAA,0.313
15,ATGCGTAG,-0.101
16,CACCCGAC,-0.282
17,AACGTCGT,-0.00222
18,AGCCAACC,-0.074
19,CTGGTGTC,-0.187
20,GGCAAAAA,-0.167
21,TGTCTGAA,-0.259
22,CTAGCACA,0.1
23,GGTGCGGA,-0.0626
24,CCTACTTC,0.0914
25,TAGCCGCA,-0.0343

row,Sequence,binding signal [E-score]
1,CACTCCAA,-0.119
2,ACTAGGGG,-0.0799
3,CGGCCGAA,-0.272
4,CAATCTGG,0.0188
5,AGTGACTC,-0.0959
6,TCACTAGA,0.155
7,ATTGCCCG,-0.0517
8,CGCCCGTA,-0.0928
9,GCCACAGA,-0.136
10,GAATTGAA,0.154
11,GCTGCGAC,-0.07
12,AAGTCAAT,0.125
13,CCCACTAG,0.0169
14,TGGAGTAA,0.0157
15,ACCATTAT,0.171
16,CCCATGCA,-0.246
17,AACTGCAT,-0.0824
18,ACGCTTAT,0.134
19,GAAAGTGC,-0.0315
20,GTACTTTA,0.344
21,GAACAGGA,-0.0727
22,ACGACGCA,0.0773
23,ACGCAATG,-0.049
24,ACTTCGCA,-0.00777
25,AGTCATTC,0.0846

row,Sequence,binding signal [E-score]
1,AATTTTGT,0.0867
2,CCCTTGGA,-0.298
3,GTACCTAA,0.155
4,AACTACGT,0.338
5,CGGACGGC,-0.375
6,ACCTCTCT,-0.113
7,AGTTATGA,0.214
8,CCTTCCCG,-0.31
9,ATTCAAGG,-0.00382
10,CAGAGATG,-0.293
11,GTTTATCA,0.0853
12,GCCGCACA,-0.321
13,ATTTTCAC,0.0493
14,CCAAATGA,-0.0639
15,AAGGCCGA,-0.247
16,CTAACTTC,0.114
17,ACTATGGC,-0.0248
18,CAACTCTC,-0.00144
19,CACCTGCC,-0.392
20,CTCTCCCC,-0.275
21,CCCCGTGC,-0.205
22,CTGGGTCC,-0.309
23,GACTACCA,0.141
24,CCGTAGAG,-0.0884
25,TCCTCTAA,-0.0186

row,Sequence,binding signal [E-score]
1,AATCTCAT,0.155
2,CACGCCTG,-0.0358
3,CAGGATAA,0.076
4,CGTAAACG,-0.0686
5,TCCCGGGA,-0.311
6,ACTTTCTG,0.144
7,ATAGGTCA,0.195
8,CCGGAGCC,-0.222
9,CTTGCAGA,-0.115
10,CCCCTGGC,-0.381
11,GAAATTAC,0.359
12,AAACTTCA,0.0505
13,AGGTCTAT,0.15
14,ACCTCGTA,0.113
15,CAGACTAG,-0.0434
16,ATAGCATA,0.263
17,GAGAAAGA,0.0766
18,ATGAGTCG,0.0198
19,GCCACTTA,-0.117
20,AGTAGGTC,0.159
21,CGACAGAG,-0.117
22,TCGGCTCA,-0.16
23,CGATGTGC,-0.223
24,GGGCAATA,-0.0561
25,CGGGCAAA,-0.0468

row,Sequence,binding signal [E-score]
1,ATACAAAT,0.337
2,CCGCAGCC,-0.343
3,ATTGAACA,-0.0938
4,AACTCGGT,0.225
5,CCCAGTGA,-0.0946
6,AAGGTGAG,-0.13
7,AACTTATT,0.159
8,AATTCCGA,0.166
9,CAGGCTAG,-0.174
10,GCTTGGGA,-0.215
11,AAGGTCGC,-0.255
12,GGCAACCA,-0.202
13,GGAAGTTA,0.154
14,AGTAAATG,0.205
15,CGTCGGTA,-0.0251
16,AAGATACG,0.137
17,AAAACTTT,-0.0026
18,GAAGGGGC,-0.24
19,TAGAGCAA,-0.0616
20,AGAATTTC,0.255
21,GTTTATGA,0.128
22,ATCGGCTC,-0.204
23,AGATCCAA,0.00481
24,CAGTTCCA,0.0296
25,CAAATCCC,-0.191

row,Sequence,binding signal [E-score]
1,CCACTTGC,-0.185
2,TAGAGATA,0.114
3,ACCAAGAT,0.202
4,GGCATTCA,-0.0675
5,CCTGCGAG,-0.157
6,AAAATTAT,0.239
7,CTAATTCA,0.168
8,GGTTGTGA,-0.0619
9,AATAAAGG,-0.0679
10,AAGATAAA,0.314
11,AGGCTCCA,-0.266
12,GAGGCCCC,-0.362
13,CTATTAAC,0.201
14,CACCAGGA,-0.0629
15,ACCTGGCG,-0.137
16,AACCAGAC,-0.227
17,TGCAGACA,-0.0615
18,TCCTTAAA,-0.108
19,CCCCCGTC,-0.191
